In PubChem BioAssay AID1963576 (National Center for Advancing Translational Sciences (NCATS), 2024):
Hit rate of the full screen: of about 46,000 compounds, about 60 (0.1%) were called active. Not shown: some 3% with an inconclusive outcome. Calls come from the whole dose curve; as a rule, active = well fitted inhibition curve with a large enough effect; inconclusive = small, poorly fitted or top-dose-only effect; inactive = no such curve, though single readings can be large or run the other way. The list shows a part of the results.

Assay: Primary qHTS assay for Inhibitors of ovarian cancer metastasis using an organotypic tumor microenvironment (TME) model.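 For activity change, negative = inhibition: plate controls were DMSO wells for no effect and tomatine positive control wells for full effect.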 Note: nearly all actives have a fitted effect of over 65% in size.
Conditions: SKOV3ip1-GFP adhesion/invasion on 3D omental model, fluorescence; series mostly up to 45.8 µM; activity change, negative = inhibition: at the top concentration
Procedure, shortened: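 qHTS, 4-pt dose (0.36-46 umol/L); SKOV3ip1-GFP, 1,200 cells/well, no FBS; primary omental fibroblast/mesothelial co-culture 48 h pre-grown; 2 h RT + 16 h 37 C; PBS wash, 4% PFA; GFP count 488/509 nm.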

Activity change, negative = inhibition, inactive:
Cc1cc(C)c(-c2n[nH]c3c2C(c2ccccc2F)N(CCO)C3=O)c(O)c1 (stereo unspecified) 1.06%
COc1ccccc1C(=O)OCc1cc(=O)n2c(C)csc2n1 1.59%
Cc1nc2cccnc2n1-c1cccc(C(=O)NCc2cccc(Cl)c2)c1 -23.9%
CCOc1ccc(-c2cc3nc(C4CCN(C(=O)OC(C)(C)C)CC4)c(C(=O)Nc4cccc(C(F)(F)F)c4)cn3n2)cc1 -5.44%
COc1ccc(Br)cc1CNCc1c(C(=O)O)c(C)n(Cc2ccccc2C)c1C 11.8%
COc1cccc(C(=O)NC2=NC(c3ccccc3F)CC(=O)N2)c1 (stereo unspecified) -2.2%
COc1cc(Cl)c(NS(=O)(=O)c2cc3[nH]c(=O)c(=O)[nH]c3cc2C)c(OC)c1 2.26%
COc1ccc(CNC(=O)CCc2c(C)nn(-c3ccc(N4CCCC4)nn3)c2C)cc1 -9.92%
CCS(=O)(=O)N1CC(=O)N(c2cc(Cl)ccc2C)C(C)(C(=O)NC2CCCCCC2)C1 (stereo unspecified) -21.2%
CN1C(=O)C[C@H](C(=O)N[C@@H](Cc2cnc[nH]2)C(=O)N2CCC[C@@H]2C(N)=O)NC1=O -1.49%
CCCCCOC(=O)CSc1nc2sc3c(c2c(=O)n1Cc1ccccc1)CC(C)(CC)OC3 (stereo unspecified) -1.5%
Cc1cc2c(cc1S(=O)(=O)CCC(=O)N1CCN(c3ccccc3)CC1)OCC(=O)N2 -12.8%
COC(=O)c1ccc(NC(=O)c2c(-c3ccccc3)c(-c3ccccc3)nn(C)c2=O)cc1 -5.69%
O=C(Nc1ccc2c(c1)CCCN2C(=O)c1cccs1)c1ccccc1C(F)(F)F -4.13%
COC1=C(OC)C(=O)C(CC=C(C)CCC=C(C)CCC=C(C)CCC=C(C)CCC=C(C)CCC=C(C)CCC=C(C)CCC=C(C)CCC=C(C)CCC=C(C)C)=C(C)C1=O 4.48%
Cc1cccc(OC(=O)c2snnc2C)c1C -40.6%
CCC(=O)N1c2ccc(S(=O)(=O)CCC(=O)NCc3ccc(OC)cc3)cc2CC1C (stereo unspecified) -8.73%
CCOC(=O)C1CCN(C(=O)c2ccc(C)c(NC(=O)c3nsc4ccccc34)c2)CC1 2.45%
O=C(Nc1ccc(F)c(F)c1)c1ccc(=O)n(Cc2ccc(F)cc2)c1 -23.4%
CC1=C(C(=O)Nc2cc(C)cc(C)c2)C2(CCCCC2)OC1=O -1.98%
CC(C)c1ccc(S(=O)(=O)NCc2nc3cccnc3n2Cc2ccc(F)cc2)cc1 -6.59%
Cc1cc(C)c(NC(=O)CCN2CCCCC2)c(C)c1 -12.9%
CCc1cccc(C)c1Nc1c(-c2cccs2)nc2ncccn12 17.8%
Cc1cc(C)c(S(=O)(=O)NCC(c2ccco2)S(=O)(=O)c2ccccc2)c(C)c1 (stereo unspecified) -14.3%
O=S(=O)(Nc1ccc(OC(F)(F)F)cc1)c1ccc(N2CCCCS2(=O)=O)cc1 6.59%
COc1cccc(C2C(=O)N(C3CCCCC3)CC(=O)N2CCc2ccc(OC)c(OC)c2)c1 (stereo unspecified) 2.53%
Nc1nc(N)c(S(=O)(=O)c2ccccc2)c(Nc2ccccc2)n1 5.82%
Cc1nc2nc(CNC(=O)OC(C)(C)C)nn2c(C)c1CCC(=O)NCc1ccccc1Cl 2.03%
COc1ccc(CCNC(=O)CCc2c(C)c3ccc(O)c(C)c3oc2=O)cc1 1.16%
COc1cc(OC)c(NC(=O)CCc2nc(C3=CCN(Cc4cccc(Cl)c4)CC3)no2)cc1Cl -0.277%
Cc1ccc(NC(=O)c2oc3ccccc3c2NC(=O)C2CCCCC2)cc1 -20.3%
COc1ccc(-c2cc(C(=O)Oc3ccc(Br)cc3)c3ccccc3n2)cc1 5.27%
COc1cccc(/C=C/c2nc(C#N)c(N(C)Cc3ccccc3)o2)c1 8.67%
CCCCSc1ncnc2c1sc1nc(N3CCOCC3)c3c(c12)CCCC3 -0.799%
Cc1ccc(NC(=O)NCCc2c(C)nn(C)c2C)c(Cl)c1 -1.68%
COc1cc(C(=O)NCc2ccc3c(c2)CCN3C(=O)c2ccncc2)cc(OC)c1OC 8.05%
Fc1ccc(CNc2nc3c(-c4ccc(F)cc4)nnn3c3ccccc23)cc1 -6.98%
CCOc1ccc(CNC(=O)COc2cc(=O)n(C)c3ccccc23)cc1 5.54%
CC1=C(C(=O)Nc2ccc(C)cc2)C(c2ccccc2Cl)n2nnnc2N1 (stereo unspecified) -11%
Cc1ccc(NC(=O)c2cc(-c3ccc4c(c3)OCO4)on2)cc1 0.939%
CCC(=O)N1CCc2cc(Br)cc(S(=O)(=O)CCC(=O)NCc3ccccc3)c21 -1.1%
COc1cccc(NC(=O)c2cc(CN3CCOCC3)on2)c1 21%
Cc1cccc2c1-c1sc(C(=O)NCc3ccccc3Cl)cc1CO2 -27.9%
CCCN1CCN(CCCNC(=O)Cn2nc(C)n3c(cc4cc(F)ccc43)c2=O)CC1 -15.1%
COc1cc(NC(=O)c2ccc(C(=O)Nc3cc(OC)c(Cl)cc3OC)cc2)c(OC)cc1Cl 0.469%

outcome, inactive:
CCCOC(=O)c1c(-c2ccccc2)c(-c2ccccc2)nn(C)c1=O
CCSc1ncc(Cl)c(C(=O)Nc2cc(C)ccc2C)n1
Cc1ccc(-n2c(=O)c3c4c(sc3n(CC(=O)C(C)(C)C)c2=O)CCCCC4)cc1C
COc1ccc(-c2nc3scc(CCNS(=O)(=O)c4cccs4)n3n2)cc1
CCOC(=O)Cc1ccc(NC(=O)Nc2nnc(N3CCCCC3C)s2)cc1 (stereo unspecified)
CCOC(=O)c1ccc(NC(=O)Nc2cc3c(cc2N2CCCCC2)n(CC)c(=O)n3CC)cc1
CCc1ccc(Nc2nc(-c3cc4cccc(OC)c4oc3=O)c(CC)s2)cc1
CCCN(C(=O)c1cc2c(s1)-c1ccccc1OC2)c1ccc(C(C)C)cc1
CCC(=O)N1CCc2cc(Br)cc(S(=O)(=O)NCCc3ccc(C)cc3)c21
Cc1ccc(NC(=O)C2CCC(CNS(=O)(=O)c3cccs3)CC2)cc1C (stereo unspecified)
COc1ccc(NC(=O)COCc2cc(-c3ccco3)on2)cc1Cl
O=C(Cn1c(=O)c2ccccc2n(CC(=O)Nc2ccccc2F)c1=O)NCCc1ccccc1
CCc1ccc(-n2c(=O)c3sc4ccccc4c3n(CC(=O)NC3CCCC3)c2=O)cc1
CCc1ccc2c(c1)c(=O)c(S(=O)(=O)c1ccc(F)cc1)cn2CC(=O)Nc1ccccc1OC
COCCCNC(=O)CN1C(=O)c2c(c3ccccc3n2C)C1c1ccc(OC)cc1 (stereo unspecified)
COc1ccc(-c2noc(CSCC(=O)Nc3ccc(C)cc3Br)n2)cc1OC
